# In the supplement of paper PMC8728848:
# The other results are listed elsewhere or left out.
# How the values were obtained:
# Assay in all cases: glycan array binding signal (z-score within array); higher = stronger binding
# Settings in all cases: glycan notation: IUPAC condensed, linker removed
# [1] = target: GlcNAc(a1-6)Gal(b1-4)GlcNAc
# Procedure, shortened: (§1)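 Glycan array data were curated from 3228 arrays in the Consortium for Functional Glycomics database and kept only where the protein sequence was available. Glycan names were converted to IUPAC-condensed notation, and columns mapping to the same glycan were averaged. The binding signal is a within-array Z-score, averaged across arrays of the same protein sequence at different concentrations or buffers and across linkers. Negative Z-scores can be read as non-binding.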
# [2] = target: GlcNAc(b1-2)Gal(b1-3)GalNAc
# Procedure, shortened: as §1
# [3] = target: GlcNAc(b1-2)Man(a1-3)[GlcNAc(b1-2)Man(a1-6)]Man(b1-4)GlcNAc(b1-4)GlcNAc
# Procedure, shortened: as §1
# [4] = target: GlcNAc(b1-2)Man(a1-3)[GlcNAc(b1-2)Man(a1-6)]Man(b1-4)GlcNAc(b1-4)[Fuc(a1-6)]GlcNAc
# Procedure, shortened: as §1
# [5] = target: GlcNAc(b1-2)Man(a1-3)[GlcNAc(b1-4)][GlcNAc(b1-2)Man(a1-6)]Man(b1-4)GlcNAc(b1-4)GlcNAc
# Procedure, shortened: as §1
# [6] = target: GlcNAc(b1-2)Man(a1-3)[GlcNAc(b1-4)][GlcNAc(b1-2)Man(a1-6)]Man(b1-4)GlcNAc(b1-4)[Fuc(a1-6)]GlcNAc
# Procedure, shortened: as §1
# [7] = target: GlcNAc(b1-2)[GlcNAc(b1-4)]Man(a1-3)[GlcNAc(b1-2)Man(a1-6)]Man(b1-4)GlcNAc(b1-4)GlcNAc
# Procedure, shortened: as §1
# [8] = target: GlcNAc(b1-2)[GlcNAc(b1-4)]Man(a1-3)[GlcNAc(b1-4)][GlcNAc(b1-2)Man(a1-6)]Man(b1-4)GlcNAc(b1-4)GlcNAc
# Procedure, shortened: as §1
# [9] = target: GlcNAc(b1-2)[GlcNAc(b1-4)]Man(a1-3)[GlcNAc(b1-4)][GlcNAc(b1-2)[GlcNAc(b1-6)]Man(a1-6)]Man(b1-4)GlcNAc(b1-4)GlcNAc
# Procedure, shortened: as §1
# [10] = target: GlcNAc(b1-2)[GlcNAc(b1-4)]Man(a1-3)[GlcNAc(b1-4)][GlcNAc(b1-2)[GlcNAc(b1-6)]Man(a1-6)]Man(b1-4)GlcNAc(b1-4)[Fuc(a1-6)]GlcNAc
# Procedure, shortened: as §1
# [11] = target: GlcNAc(b1-2)[GlcNAc(b1-6)]Man(a1-6)[GlcNAc(b1-2)Man(a1-3)]Man(b1-4)GlcNAc(b1-4)GlcNAc
# Procedure, shortened: as §1
# [12] = target: GlcNAc(b1-2)[GlcNAc(b1-6)]Man(a1-6)[GlcNAc(b1-2)Man(a1-3)]Man(b1-4)GlcNAc(b1-4)[Fuc(a1-6)]GlcNAc
# Procedure, shortened: as §1
# [13] = target: GlcNAc(b1-2)[GlcNAc(b1-6)]Man(a1-6)[GlcNAc(b1-4)][GlcNAc(b1-2)Man(a1-3)]Man(b1-4)GlcNAc(b1-4)GlcNAc
# Procedure, shortened: as §1
# GlcNAc(b1-3)Fuc = target: GlcNAc(b1-3)Fuc
# Procedure, shortened: as §1
# GlcNAc(b1-3)Gal = target: GlcNAc(b1-3)Gal
# Procedure, shortened: as §1
# [14] = target: GlcNAc(b1-3)Gal(b1-3)GalNAc
# Procedure, shortened: as §1
# GlcNAc(b1-3)Gal(b1-4)Glc = target: GlcNAc(b1-3)Gal(b1-4)Glc
# Procedure, shortened: as §1
# [15] = target: GlcNAc(b1-3)Gal(b1-4)GlcNAc
# Procedure, shortened: as §1
# [16] = target: GlcNAc(b1-3)Gal(b1-4)GlcNAc(b1-2)Man(a1-3)[GlcNAc(b1-3)Gal(b1-4)GlcNAc(b1-2)Man(a1-6)]Man(b1-4)GlcNAc(b1-4)GlcNAc
# Procedure, shortened: as §1
# [17] = target: GlcNAc(b1-3)Gal(b1-4)GlcNAc(b1-2)Man(a1-3)[GlcNAc(b1-3)Gal(b1-4)GlcNAc(b1-2)Man(a1-6)]Man(b1-4)GlcNAc(b1-4)[Fuc(a1-6)]GlcNAc
# Procedure, shortened: as §1
# [18] = target: GlcNAc(b1-3)Gal(b1-4)GlcNAc(b1-2)[GlcNAc(b1-3)Gal(b1-4)GlcNAc(b1-6)]Man(a1-6)[GlcNAc(b1-3)Gal(b1-4)GlcNAc(b1-2)Man(a1-3)]Man(b1-4)GlcNAc(b1-4)GlcNAc
# Procedure, shortened: as §1
# [19] = target: GlcNAc(b1-3)Gal(b1-4)GlcNAc(b1-3)Gal(b1-4)GlcNAc
# Procedure, shortened: as §1
# [20] = target: GlcNAc(b1-3)Gal(b1-4)GlcNAc(b1-3)Gal(b1-4)GlcNAc(b1-2)Man(a1-3)[GlcNAc(b1-3)Gal(b1-4)GlcNAc(b1-3)Gal(b1-4)GlcNAc(b1-2)Man(a1-6)]Man(b1-4)GlcNAc(b1-4)GlcNAc
# Procedure, shortened: as §1
# [21] = target: GlcNAc(b1-3)Gal(b1-4)GlcNAc(b1-3)Gal(b1-4)GlcNAc(b1-2)Man(a1-3)[GlcNAc(b1-3)Gal(b1-4)GlcNAc(b1-3)Gal(b1-4)GlcNAc(b1-2)Man(a1-6)]Man(b1-4)GlcNAc(b1-4)[Fuc(a1-6)]GlcNAc
# Procedure, shortened: as §1
# [22] = target: GlcNAc(b1-3)Gal(b1-4)GlcNAc(b1-3)Gal(b1-4)GlcNAc(b1-2)[GlcNAc(b1-3)Gal(b1-4)GlcNAc(b1-3)Gal(b1-4)GlcNAc(b1-6)]Man(a1-6)[GlcNAc(b1-3)Gal(b1-4)GlcNAc(b1-3)Gal(b1-4)GlcNAc(b1-2)Man(a1-3)]Man(b1-4)GlcNAc(b1-4)[Fuc(a1-6)]GlcNAc
# Procedure, shortened: as §1
# [23] = target: GlcNAc(b1-3)Gal(b1-4)GlcNAc(b1-3)Gal(b1-4)GlcNAc(b1-3)Gal(b1-4)GlcNAc(b1-2)Man(a1-3)[GlcNAc(b1-3)Gal(b1-4)GlcNAc(b1-3)Gal(b1-4)GlcNAc(b1-3)Gal(b1-4)GlcNAc(b1-2)Man(a1-6)]Man(b1-4)GlcNAc(b1-4)GlcNAc
# Procedure, shortened: as §1
# [24] = target: GlcNAc(b1-3)Gal(b1-4)GlcNAc(b1-3)Gal(b1-4)GlcNAc(b1-3)Gal(b1-4)GlcNAc(b1-2)Man(a1-3)[GlcNAc(b1-3)Gal(b1-4)GlcNAc(b1-3)Gal(b1-4)GlcNAc(b1-3)Gal(b1-4)GlcNAc(b1-2)Man(a1-6)]Man(b1-4)GlcNAc(b1-4)[Fuc(a1-6)]GlcNAc
# Procedure, shortened: as §1
# [25] = target: GlcNAc(b1-3)Gal(b1-4)GlcNAc(b1-3)Gal(b1-4)GlcNAc(b1-3)Gal(b1-4)GlcNAc(b1-2)[GlcNAc(b1-3)Gal(b1-4)GlcNAc(b1-3)Gal(b1-4)GlcNAc(b1-3)Gal(b1-4)GlcNAc(b1-6)]Man(a1-6)[GlcNAc(b1-3)Gal(b1-4)GlcNAc(b1-3)Gal(b1-4)GlcNAc(b1-3)Gal(b1-4)GlcNAc(b1-2)Man(a1-3)]Man(b1-4)GlcNAc(b1-4)[Fuc(a1-6)]GlcNAc
# Procedure, shortened: as §1
# [26] = target: GlcNAc(b1-3)Gal(b1-4)GlcNAc(b1-3)Gal(b1-4)GlcNAc(b1-3)Gal(b1-4)GlcNAc(b1-3)Gal(b1-4)GlcNAc(b1-2)Man(a1-3)[GlcNAc(b1-3)Gal(b1-4)GlcNAc(b1-3)Gal(b1-4)GlcNAc(b1-3)Gal(b1-4)GlcNAc(b1-3)Gal(b1-4)GlcNAc(b1-2)Man(a1-6)]Man(b1-4)GlcNAc(b1-4)GlcNAc
# Procedure, shortened: as §1
# [27] = target: GlcNAc(b1-3)Gal(b1-4)GlcNAc(b1-3)Gal(b1-4)GlcNAc(b1-3)Gal(b1-4)GlcNAc(b1-3)Gal(b1-4)GlcNAc(b1-2)Man(a1-3)[GlcNAc(b1-3)Gal(b1-4)GlcNAc(b1-3)Gal(b1-4)GlcNAc(b1-3)Gal(b1-4)GlcNAc(b1-3)Gal(b1-4)GlcNAc(b1-2)Man(a1-6)]Man(b1-4)GlcNAc(b1-4)[Fuc(a1-6)]GlcNAc
# Procedure, shortened: as §1
# [28] = target: GlcNAc(b1-3)Gal(b1-4)GlcNAc(b1-3)Gal(b1-4)GlcNAc(b1-3)Gal(b1-4)GlcNAc(b1-3)Gal(b1-4)GlcNAc(b1-2)[GlcNAc(b1-3)Gal(b1-4)GlcNAc(b1-3)Gal(b1-4)GlcNAc(b1-3)Gal(b1-4)GlcNAc(b1-3)Gal(b1-4)GlcNAc(b1-6)]Man(a1-6)[GlcNAc(b1-3)Gal(b1-4)GlcNAc(b1-3)Gal(b1-4)GlcNAc(b1-3)Gal(b1-4)GlcNAc(b1-3)Gal(b1-4)GlcNAc(b1-2)Man(a1-3)]Man(b1-4)GlcNAc(b1-4)[Fuc(a1-6)]GlcNAc
# Procedure, shortened: as §1
# [29] = target: GlcNAc(b1-3)Gal(b1-4)GlcNAc(b1-3)Gal(b1-4)GlcNAc(b1-3)GalNAc
# Procedure, shortened: as §1
# [30] = target: GlcNAc(b1-3)Gal(b1-4)GlcNAc(b1-3)GalNAc
# Procedure, shortened: as §1
# [31] = target: GlcNAc(b1-3)Gal(b1-4)GlcNAc(b1-3)[GlcNAc(b1-3)Gal(b1-4)GlcNAc(b1-3)]GalNAc
# Procedure, shortened: as §1
# [32] = target: GlcNAc(b1-3)Gal(b1-4)GlcNAc(b1-6)[Gal(b1-3)]GalNAc
# Procedure, shortened: as §1
# [33] = target: GlcNAc(b1-3)Gal(b1-4)GlcNAc(b1-6)[GlcNAc(b1-3)Gal(b1-3)]GalNAc
# Procedure, shortened: as §1
# [34] = target: GlcNAc(b1-3)Gal(b1-4)GlcNAc(b1-6)[GlcNAc(b1-3)]Gal(b1-4)GlcNAc
# Procedure, shortened: as §1
# GlcNAc(b1-3)GalNAc = target: GlcNAc(b1-3)GalNAc
# Procedure, shortened: as §1
# GlcNAc(b1-3)Man = target: GlcNAc(b1-3)Man
# Procedure, shortened: as §1
# [35] = target: GlcNAc(b1-3)[GlcNAc(b1-4)][GlcNAc(b1-6)]GlcNAc
# Procedure, shortened: as §1
# [36] = target: GlcNAc(b1-3)[GlcNAc(b1-6)]Gal(b1-4)GlcNAc
# Procedure, shortened: as §1
# [37] = target: GlcNAc(b1-3)[GlcNAc(b1-6)]GalNAc
# Procedure, shortened: as §1
# [38] = target: GlcNAc(b1-4)Gal(b1-4)GlcNAc
# Procedure, shortened: as §1
# GlcNAc(b1-4)GlcNAc = target: GlcNAc(b1-4)GlcNAc
# Procedure, shortened: as §1
# [39] = target: GlcNAc(b1-4)GlcNAc(b1-4)GlcNAc
# Procedure, shortened: as §1
binder,measurement,setting,value
"CrataBL (Crataeva tapia), C0HJA4 (protein) AILTGVPYYILPSTSRAGFSPDNLRKNTSQLSCPLDLITQLRFPRRIGVPVIFTPQNSSLKVVPLSHNLNIHTCSDLWFCPESKIWTVKSSLTHGGSVVTTGGTFRSLGSWFRIERHGDSYKLVHCPRGSTPCRDVGIETVGGGGRRYLAPRDRPLAVRFTRASG",glycan array binding signal (z-score),[1],-0.513
same,glycan array binding signal (z-score),[2],-0.299
same,glycan array binding signal (z-score),[3],-0.493
same,glycan array binding signal (z-score),[4],-0.302
same,glycan array binding signal (z-score),[5],-0.23
same,glycan array binding signal (z-score),[6],-0.525
same,glycan array binding signal (z-score),[7],-0.474
same,glycan array binding signal (z-score),[8],-0.526
same,glycan array binding signal (z-score),[9],-0.526
same,glycan array binding signal (z-score),[10],-0.494
same,glycan array binding signal (z-score),[11],-0.538
same,glycan array binding signal (z-score),[12],-0.417
same,glycan array binding signal (z-score),[13],-0.509
same,glycan array binding signal (z-score),GlcNAc(b1-3)Fuc,-0.178
same,glycan array binding signal (z-score),GlcNAc(b1-3)Gal,-0.435
same,glycan array binding signal (z-score),[14],-0.119
same,glycan array binding signal (z-score),GlcNAc(b1-3)Gal(b1-4)Glc,-0.387
same,glycan array binding signal (z-score),[15],-0.518
same,glycan array binding signal (z-score),[16],-0.21
same,glycan array binding signal (z-score),[17],-0.267
same,glycan array binding signal (z-score),[18],0.491
same,glycan array binding signal (z-score),[19],-0.458
same,glycan array binding signal (z-score),[20],0.539
same,glycan array binding signal (z-score),[21],-0.076
same,glycan array binding signal (z-score),[22],0.305
same,glycan array binding signal (z-score),[23],-0.17
same,glycan array binding signal (z-score),[24],0.109
same,glycan array binding signal (z-score),[25],0.253
same,glycan array binding signal (z-score),[26],-0.323
same,glycan array binding signal (z-score),[27],-0.429
same,glycan array binding signal (z-score),[28],0.165
same,glycan array binding signal (z-score),[29],0.072
same,glycan array binding signal (z-score),[30],0.521
same,glycan array binding signal (z-score),[31],0.704
same,glycan array binding signal (z-score),[32],-0.065
same,glycan array binding signal (z-score),[33],-0.098
same,glycan array binding signal (z-score),[34],-0.344
same,glycan array binding signal (z-score),GlcNAc(b1-3)GalNAc,-0.347
same,glycan array binding signal (z-score),GlcNAc(b1-3)Man,0.024
same,glycan array binding signal (z-score),[35],-0.373
same,glycan array binding signal (z-score),[36],-0.169
same,glycan array binding signal (z-score),[37],-0.019
same,glycan array binding signal (z-score),[38],-0.317
same,glycan array binding signal (z-score),GlcNAc(b1-4)GlcNAc,-0.114
same,glycan array binding signal (z-score),[39],-0.244
